Measured values published in the supplement of paper PMC8728848.
This is one part of the list.

Key:
Assay in all cases: glycan array binding signal (z-score within array); higher = stronger binding
Details in all cases: glycan notation: IUPAC condensed, linker removed
[1] = target: GlcNAc(b1-2)Man(a1-3)[GlcNAc(b1-2)Man(a1-6)]Man(b1-4)GlcNAc(b1-4)GlcNAc
Outline: (§1)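 The binding signal is a Z-score computed within each array. Data were drawn from 3228 arrays in the Consortium for Functional Glycomics database, restricted to those with a known protein sequence. Scores were averaged over arrays of the same protein sequence at different concentrations or buffers, and over linkers, and negative values can be taken as non-binding.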

[2] = target: GlcNAc(b1-2)Man(a1-3)[GlcNAc(b1-2)Man(a1-6)]Man(b1-4)GlcNAc(b1-4)[Fuc(a1-6)]GlcNAc
Outline: as §1

[3] = target: GlcNAc(b1-2)Man(a1-3)[GlcNAc(b1-4)][GlcNAc(b1-2)Man(a1-6)]Man(b1-4)GlcNAc(b1-4)GlcNAc
Outline: as §1

[4] = target: GlcNAc(b1-2)Man(a1-3)[GlcNAc(b1-4)][GlcNAc(b1-2)Man(a1-6)]Man(b1-4)GlcNAc(b1-4)[Fuc(a1-6)]GlcNAc
Outline: as §1

[5] = target: GlcNAc(b1-2)[GlcNAc(b1-4)]Man(a1-3)[GlcNAc(b1-2)Man(a1-6)]Man(b1-4)GlcNAc(b1-4)GlcNAc
Outline: as §1

[6] = target: GlcNAc(b1-2)[GlcNAc(b1-4)]Man(a1-3)[GlcNAc(b1-4)][GlcNAc(b1-2)Man(a1-6)]Man(b1-4)GlcNAc(b1-4)GlcNAc
Outline: as §1

[7] = target: GlcNAc(b1-2)[GlcNAc(b1-4)]Man(a1-3)[GlcNAc(b1-4)][GlcNAc(b1-2)[GlcNAc(b1-6)]Man(a1-6)]Man(b1-4)GlcNAc(b1-4)GlcNAc
Outline: as §1

[8] = target: GlcNAc(b1-2)[GlcNAc(b1-4)]Man(a1-3)[GlcNAc(b1-4)][GlcNAc(b1-2)[GlcNAc(b1-6)]Man(a1-6)]Man(b1-4)GlcNAc(b1-4)[Fuc(a1-6)]GlcNAc
Outline: as §1

[9] = target: GlcNAc(b1-2)[GlcNAc(b1-6)]Man(a1-6)[GlcNAc(b1-2)Man(a1-3)]Man(b1-4)GlcNAc(b1-4)GlcNAc
Outline: as §1

[10] = target: GlcNAc(b1-2)[GlcNAc(b1-6)]Man(a1-6)[GlcNAc(b1-2)Man(a1-3)]Man(b1-4)GlcNAc(b1-4)[Fuc(a1-6)]GlcNAc
Outline: as §1

[11] = target: GlcNAc(b1-2)[GlcNAc(b1-6)]Man(a1-6)[GlcNAc(b1-4)][GlcNAc(b1-2)Man(a1-3)]Man(b1-4)GlcNAc(b1-4)GlcNAc
Outline: as §1

GlcNAc(b1-3)Fuc = target: GlcNAc(b1-3)Fuc
Outline: as §1

GlcNAc(b1-3)Gal = target: GlcNAc(b1-3)Gal
Outline: as §1

[12] = target: GlcNAc(b1-3)Gal(b1-3)GalNAc
Outline: as §1

GlcNAc(b1-3)Gal(b1-4)Glc = target: GlcNAc(b1-3)Gal(b1-4)Glc
Outline: as §1

[13] = target: GlcNAc(b1-3)Gal(b1-4)GlcNAc
Outline: as §1

[14] = target: GlcNAc(b1-3)Gal(b1-4)GlcNAc(b1-2)Man(a1-3)[GlcNAc(b1-3)Gal(b1-4)GlcNAc(b1-2)Man(a1-6)]Man(b1-4)GlcNAc(b1-4)GlcNAc
Outline: as §1

[15] = target: GlcNAc(b1-3)Gal(b1-4)GlcNAc(b1-2)Man(a1-3)[GlcNAc(b1-3)Gal(b1-4)GlcNAc(b1-2)Man(a1-6)]Man(b1-4)GlcNAc(b1-4)[Fuc(a1-6)]GlcNAc
Outline: as §1

[16] = target: GlcNAc(b1-3)Gal(b1-4)GlcNAc(b1-2)[GlcNAc(b1-3)Gal(b1-4)GlcNAc(b1-6)]Man(a1-6)[GlcNAc(b1-3)Gal(b1-4)GlcNAc(b1-2)Man(a1-3)]Man(b1-4)GlcNAc(b1-4)GlcNAc
Outline: as §1

[17] = target: GlcNAc(b1-3)Gal(b1-4)GlcNAc(b1-3)Gal(b1-4)GlcNAc
Outline: as §1

[18] = target: GlcNAc(b1-3)Gal(b1-4)GlcNAc(b1-3)Gal(b1-4)GlcNAc(b1-2)Man(a1-3)[GlcNAc(b1-3)Gal(b1-4)GlcNAc(b1-3)Gal(b1-4)GlcNAc(b1-2)Man(a1-6)]Man(b1-4)GlcNAc(b1-4)GlcNAc
Outline: as §1

[19] = target: GlcNAc(b1-3)Gal(b1-4)GlcNAc(b1-3)Gal(b1-4)GlcNAc(b1-2)Man(a1-3)[GlcNAc(b1-3)Gal(b1-4)GlcNAc(b1-3)Gal(b1-4)GlcNAc(b1-2)Man(a1-6)]Man(b1-4)GlcNAc(b1-4)[Fuc(a1-6)]GlcNAc
Outline: as §1

[20] = target: GlcNAc(b1-3)Gal(b1-4)GlcNAc(b1-3)Gal(b1-4)GlcNAc(b1-2)[GlcNAc(b1-3)Gal(b1-4)GlcNAc(b1-3)Gal(b1-4)GlcNAc(b1-6)]Man(a1-6)[GlcNAc(b1-3)Gal(b1-4)GlcNAc(b1-3)Gal(b1-4)GlcNAc(b1-2)Man(a1-3)]Man(b1-4)GlcNAc(b1-4)[Fuc(a1-6)]GlcNAc
Outline: as §1

[21] = target: GlcNAc(b1-3)Gal(b1-4)GlcNAc(b1-3)Gal(b1-4)GlcNAc(b1-3)Gal(b1-4)GlcNAc(b1-2)Man(a1-3)[GlcNAc(b1-3)Gal(b1-4)GlcNAc(b1-3)Gal(b1-4)GlcNAc(b1-3)Gal(b1-4)GlcNAc(b1-2)Man(a1-6)]Man(b1-4)GlcNAc(b1-4)GlcNAc
Outline: as §1

[22] = target: GlcNAc(b1-3)Gal(b1-4)GlcNAc(b1-3)Gal(b1-4)GlcNAc(b1-3)Gal(b1-4)GlcNAc(b1-2)Man(a1-3)[GlcNAc(b1-3)Gal(b1-4)GlcNAc(b1-3)Gal(b1-4)GlcNAc(b1-3)Gal(b1-4)GlcNAc(b1-2)Man(a1-6)]Man(b1-4)GlcNAc(b1-4)[Fuc(a1-6)]GlcNAc
Outline: as §1

[23] = target: GlcNAc(b1-3)Gal(b1-4)GlcNAc(b1-3)Gal(b1-4)GlcNAc(b1-3)Gal(b1-4)GlcNAc(b1-2)[GlcNAc(b1-3)Gal(b1-4)GlcNAc(b1-3)Gal(b1-4)GlcNAc(b1-3)Gal(b1-4)GlcNAc(b1-6)]Man(a1-6)[GlcNAc(b1-3)Gal(b1-4)GlcNAc(b1-3)Gal(b1-4)GlcNAc(b1-3)Gal(b1-4)GlcNAc(b1-2)Man(a1-3)]Man(b1-4)GlcNAc(b1-4)[Fuc(a1-6)]GlcNAc
Outline: as §1

[24] = target: GlcNAc(b1-3)Gal(b1-4)GlcNAc(b1-3)Gal(b1-4)GlcNAc(b1-3)Gal(b1-4)GlcNAc(b1-3)Gal(b1-4)GlcNAc(b1-2)Man(a1-3)[GlcNAc(b1-3)Gal(b1-4)GlcNAc(b1-3)Gal(b1-4)GlcNAc(b1-3)Gal(b1-4)GlcNAc(b1-3)Gal(b1-4)GlcNAc(b1-2)Man(a1-6)]Man(b1-4)GlcNAc(b1-4)GlcNAc
Outline: as §1

[25] = target: GlcNAc(b1-3)Gal(b1-4)GlcNAc(b1-3)Gal(b1-4)GlcNAc(b1-3)Gal(b1-4)GlcNAc(b1-3)Gal(b1-4)GlcNAc(b1-2)Man(a1-3)[GlcNAc(b1-3)Gal(b1-4)GlcNAc(b1-3)Gal(b1-4)GlcNAc(b1-3)Gal(b1-4)GlcNAc(b1-3)Gal(b1-4)GlcNAc(b1-2)Man(a1-6)]Man(b1-4)GlcNAc(b1-4)[Fuc(a1-6)]GlcNAc
Outline: as §1

[26] = target: GlcNAc(b1-3)Gal(b1-4)GlcNAc(b1-3)Gal(b1-4)GlcNAc(b1-3)Gal(b1-4)GlcNAc(b1-3)Gal(b1-4)GlcNAc(b1-2)[GlcNAc(b1-3)Gal(b1-4)GlcNAc(b1-3)Gal(b1-4)GlcNAc(b1-3)Gal(b1-4)GlcNAc(b1-3)Gal(b1-4)GlcNAc(b1-6)]Man(a1-6)[GlcNAc(b1-3)Gal(b1-4)GlcNAc(b1-3)Gal(b1-4)GlcNAc(b1-3)Gal(b1-4)GlcNAc(b1-3)Gal(b1-4)GlcNAc(b1-2)Man(a1-3)]Man(b1-4)GlcNAc(b1-4)[Fuc(a1-6)]GlcNAc
Outline: as §1

[27] = target: GlcNAc(b1-3)Gal(b1-4)GlcNAc(b1-3)Gal(b1-4)GlcNAc(b1-3)GalNAc
Outline: as §1

B1: Blon2468mut (Bifidobacterium longum) (protein)
chain: MTFIKQMMPRYVASMTAGIVAAAMAATCAFAPVANADAVSPTQETIQSTGRHFMVYYRAWRDVTMKGVNTDLPDDNWISMYDIPYGVDVVNIFSYVPSGQEEQAQPFYDKLKSDYAPYLHSRGIKLVRGIDYTGVAVNGFRTFMKEQNKTESEATEADYDAYAKQVIDKYMISVGLDGLDIDMQAHPNDADVKISDNVIRALSKHIGPKSAKPDTTMFLYDTNGSYLNPFKNVAECFDYVAYQQYGSSSDRTARAAADYQPYIGNEFVPGLTFPEEGDMNNRWYDATEPYEESHFYQVASYVREHNLGGMFVYALDRDGRNYDEDLRRIVPSNLLWTKTAIAESEGMALDTAKTAANHYLDRMSLRQVIDDNAASADKARDMVGKAANLYETNKAVLGGDYGEGFSNTYDPTLEAGLLGIDISVLQQQIDKSSEIIGADTAESDAKTALRMARDAAIDGLTGKIYTADQVSAWSQALKAALDATVPVPTPDSTDQNGNRDKVTNHKVQGQPKQLSATGISTDIIVAVGVTLAIAGVALSLSRKLS
glycan array binding signal (z-score) [1]: -0.069
glycan array binding signal (z-score) [2]: -0.026
glycan array binding signal (z-score) [3]: -0.084
glycan array binding signal (z-score) [4]: -0.083
glycan array binding signal (z-score) [5]: -0.062
glycan array binding signal (z-score) [6]: -0.086
glycan array binding signal (z-score) [7]: -0.091
glycan array binding signal (z-score) [8]: -0.057
glycan array binding signal (z-score) [9]: -0.071
glycan array binding signal (z-score) [10]: -0.077
glycan array binding signal (z-score) [11]: -0.036
glycan array binding signal (z-score) (GlcNAc(b1-3)Fuc): -0.07
glycan array binding signal (z-score) (GlcNAc(b1-3)Gal): -0.088
glycan array binding signal (z-score) [12]: -0.045
glycan array binding signal (z-score) (GlcNAc(b1-3)Gal(b1-4)Glc): -0.061
glycan array binding signal (z-score) [13]: -0.09
glycan array binding signal (z-score) [14]: -0.052
glycan array binding signal (z-score) [15]: -0.061
glycan array binding signal (z-score) [16]: -0.046
glycan array binding signal (z-score) [17]: -0.083
glycan array binding signal (z-score) [18]: -0.057
glycan array binding signal (z-score) [19]: -0.036
glycan array binding signal (z-score) [20]: -0.043
glycan array binding signal (z-score) [21]: -0.062
glycan array binding signal (z-score) [22]: -0.069
glycan array binding signal (z-score) [23]: -0.074
glycan array binding signal (z-score) [24]: -0.05
glycan array binding signal (z-score) [25]: -0.052
glycan array binding signal (z-score) [26]: -0.038
glycan array binding signal (z-score) [27]: -0.065
